Data from publication PMC4336329 (PLoS ONE, 2015).
Hit rate of the full screen: of about 310,000 compounds, about 2,200 (0.71%) showed an effect of 50% or more. The effect is printed as a negative number. This is one part of the list.

Each compound was assayed against human ether-à-go-go-related gene (hERG) potassium channel (human, UniProt Q12809) (assay: primary screen, population patch clamp on CHO cells stably expressing hERG).
human ether-à-go-go-related gene (hERG) potassium channel, sequence (Q12809 whole entry, looked up): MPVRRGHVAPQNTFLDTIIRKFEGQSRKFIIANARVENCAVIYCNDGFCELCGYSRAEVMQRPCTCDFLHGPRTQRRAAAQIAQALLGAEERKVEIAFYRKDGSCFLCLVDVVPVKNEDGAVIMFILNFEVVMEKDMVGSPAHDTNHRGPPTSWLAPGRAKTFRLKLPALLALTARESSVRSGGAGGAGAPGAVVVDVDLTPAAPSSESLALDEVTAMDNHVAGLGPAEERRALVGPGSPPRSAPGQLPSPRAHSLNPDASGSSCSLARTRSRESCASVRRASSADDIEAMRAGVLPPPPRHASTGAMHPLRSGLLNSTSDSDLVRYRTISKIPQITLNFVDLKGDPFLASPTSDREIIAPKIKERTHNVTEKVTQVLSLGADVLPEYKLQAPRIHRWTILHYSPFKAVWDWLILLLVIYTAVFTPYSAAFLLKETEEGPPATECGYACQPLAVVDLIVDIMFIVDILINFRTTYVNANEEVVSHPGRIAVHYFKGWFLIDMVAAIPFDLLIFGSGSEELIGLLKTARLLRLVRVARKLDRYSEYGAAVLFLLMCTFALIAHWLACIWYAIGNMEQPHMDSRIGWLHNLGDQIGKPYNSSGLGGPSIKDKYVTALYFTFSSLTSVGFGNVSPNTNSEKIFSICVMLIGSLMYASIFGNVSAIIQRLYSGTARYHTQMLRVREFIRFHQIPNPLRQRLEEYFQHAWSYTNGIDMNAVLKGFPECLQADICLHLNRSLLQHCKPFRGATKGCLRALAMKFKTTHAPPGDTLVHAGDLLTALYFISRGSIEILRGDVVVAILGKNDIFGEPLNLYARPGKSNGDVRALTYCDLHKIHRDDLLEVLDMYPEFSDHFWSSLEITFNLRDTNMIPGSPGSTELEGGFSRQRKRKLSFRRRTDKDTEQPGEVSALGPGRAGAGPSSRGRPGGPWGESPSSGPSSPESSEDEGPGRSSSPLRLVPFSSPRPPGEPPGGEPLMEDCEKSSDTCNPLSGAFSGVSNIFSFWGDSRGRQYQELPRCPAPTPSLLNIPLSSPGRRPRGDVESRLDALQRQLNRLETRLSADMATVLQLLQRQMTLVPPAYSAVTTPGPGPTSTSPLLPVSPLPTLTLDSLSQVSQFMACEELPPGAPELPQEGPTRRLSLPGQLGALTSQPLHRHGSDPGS

Row | Structure (SMILES) | hERG current change (%, negative = inhibition) at 1uM [%]
1 | CC(=O)/C(C(=N)N1CCN(c2cccc(Cl)c2)CC1)=C(\C)O | 4.02
2 | O=S(=O)(c1cccs1)N1CN(C2CCCC2)c2nc3ccccc3nc21 | 5.99
3 | COc1ccc(F)c(CN2CCN(CCc3ccccc3)C(CCO)C2)c1 (stereo not drawn) | 4.05
4 | CCC(C)N(C(=O)c1csnn1)C(C(=O)NCc1ccc(F)cc1)c1ccco1 (stereo not drawn) | -10.4
5 | Cc1ccc(NC(=O)CN2CCOCC2)cc1C | 12.7
6 | CSc1nc2ccc(N3C(=O)C4CCCCC4C3=O)cc2s1 (stereo not drawn) | -1.65
7 | CON/C=C(\C=Nc1ccccc1)c1ncc(C(F)(F)F)cc1Cl | 8.6
8 | COc1ccc(C2NC(=O)NC(C)=C2C(=O)OC2CCCC(C)C2)cc1 (stereo not drawn) | 9.22
9 | O=C(NCCOc1ccccc1)C1CCCN1C(=O)c1cccs1 (stereo not drawn) | 12.8
10 | O=C(NCC1CCCO1)c1ccc(COc2ccccc2)o1 (stereo not drawn) | -8.81
11 | CS(=O)(=O)NCc1csc(-c2ccccc2)n1 | 8.19
12 | CCOc1ccc(NC(=O)c2ccccc2CO)cc1 | 11.2
13 | C/C(=N\NC(=O)COc1ccc(C)cc1C(C)C)c1ccc(-n2ccnc2)cc1 | 4.88
14 | CCC(C)NC(=O)c1ccccc1NC(=O)CN(c1cc(C)ccc1OC)S(C)(=O)=O (stereo not drawn) | 5.63
15 | Clc1cccc(N2CCNCC2)n1 | 11.5
16 | COc1ccc(Nc2nc(N)nc(CSC(=S)N3CCN(c4ccccc4)CC3)n2)cc1 | 8.12
17 | COc1ccc(CCN=C(C)C2=C(O)C(c3ccccc3)OC2=O)cc1OC (stereo not drawn) | 2.95
18 | NC(=O)CSc1nnc(CNc2ccc(F)cc2)n1CC1CCCO1 (stereo not drawn) | -1.77
19 | CC(C)N(C#N)c1nc(N2CCOCC2)nc(N2CCOCC2)n1 | 0.297
20 | CCCCn1c(/N=C/c2c[nH]c3ccccc23)nc2ccccc21 | 11.4
21 | O=C(c1ccc(NC2=NC3CS(=O)(=O)CC3S2)cc1)N1CCN(Cc2ccccc2)CC1 (stereo not drawn) | 3.9
22 | CC1(C)CC(=O)C2=C(C1)Nc1ccccc1NC2c1cccc(F)c1 (stereo not drawn) | 9.12

Row | Structure (SMILES) | hERG current change (%, negative = inhibition) at 1uM [%]
23 | COCCN(CCOC)S(=O)(=O)c1ccc(C(=O)Nc2nc(C)c(C(C)=O)s2)cc1 | 13.7
24 | CCOC(=O)Cc1csc(SCC(=O)Nc2cccc(Cl)c2)n1 | 11.3
25 | Cc1cc(N2CCOCC2)ccc1/C=C1\NC(=O)N(CC(=O)Nc2ccc(F)cc2)C1=O | 3.31
26 | O=C(CCCN1C(=O)/C(=C/c2cccs2)SC1=S)NNC(=O)c1ccncc1 | 0.723
27 | CC(=O)Oc1ccc2nc(CN3C(=O)c4ccc([N+](=O)[O-])cc4C3=O)oc(=O)c2c1 | 6.12
28 | O=C(OC(C(=O)NCc1ccco1)C(OC(=O)c1ccccc1)C(=O)NCc1ccco1)c1ccccc1 (stereo not drawn) | 7.22
29 | Cc1cc(NC(=O)CC#N)n(-c2nc3ccccc3[nH]2)n1 | 4.24
30 | O=C(NCC1OCCc2ccccc21)c1ccco1 (stereo not drawn) | 2.83
31 | FC(F)(F)c1nnc(-c2ccccc2)nc1Oc1ccccc1 | 14.5
32 | COc1ccc([N+](=O)[O-])cc1NS(=O)(=O)c1ccc(Cl)c(C(=O)Nc2sc3c(c2C#N)CCCCC3)c1 | 17.4
33 | CCCc1cc(=O)[nH]c(SCC(=O)N(CC)C2CCS(=O)(=O)C2)n1 (stereo not drawn) | 15.5
34 | CCSc1nc(N2CCOCC2)c2ccccc2n1 | 11.7
35 | COc1ccc(-c2csc(N3CCN(C(=O)c4ccccc4)CC3)n2)cc1 | 13.5
36 | Cc1c(Cl)c(-c2n[nH]c(=S)n2-c2ccc(F)cc2)nn1C | 11.5
37 | COc1ccccc1OCc1ccc(C(=O)c2ccccc2)cc1 | 15.9
38 | O=C(Nc1ncccn1)c1cc(-c2cccc(Br)c2)nc2ccccc12 | 11.1
39 | O=C(CSc1nccn1-c1ncc(C(F)(F)F)cc1Cl)c1ccc(Br)cc1 | 3.16
40 | CCOc1ccccc1NC(=O)c1oc2ccccc2c1NC(=O)C1CCCO1 (stereo not drawn) | 0.437
41 | COc1cc(CNS(=O)(=O)c2ccc3c(c2)CC(C)N3C(C)=O)cc(OC)c1OC (stereo not drawn) | 24.4
42 | COc1ccc(NC(=S)NNC(=O)c2cccs2)cc1 | 12.3
43 | CCc1ccccc1NC(=O)CSc1nc2ccccc2nc1N1CCOCC1 | 5.43
44 | COc1ccc(NC(=O)c2cccc(-n3cnnn3)c2)cc1 | 5.08

Row | Structure (SMILES) | hERG current change (%, negative = inhibition) at 1uM [%]
45 | COc1ccc(-c2nnc3ccc(SCC(N)=O)nn23)cc1OC | 7.51
46 | Cc1cc(C)nc(SCc2nnc(SCC(=O)Nc3nc(-c4ccccc4)cs3)n2C)n1 | 5.48
47 | COc1ccc2oc(-c3ccc(NC(=O)c4ccc(N5CCOCC5)c([N+](=O)[O-])c4)cc3)nc2c1 | 14.8
48 | COCCNC(=O)N1[C@H]2CC[C@@H]1C(C(=O)OC)=C(c1ccc(OC)c(OC)c1)C2 | 14.7
49 | O=C(CCc1c[nH]c2ccccc12)NCc1ccncc1 | 11.8
50 | COc1ccc2c3c(c(=O)oc2c1OCC(=O)O)CCCC3 | 23.8
51 | C(=C\c1ccccc1)/C=N/Nc1nc2ccccc2[nH]1 | -5.22
52 | COC(=O)[C@@H]1C[C@@]2(O)[C@H](O)[C@H](O)[C@H](O)C[C@H]2N1C/C=C/c1ccccc1 | 9.96
53 | COCCNc1nc(NCc2ccccc2)c2cnn(C)c2n1 | 13.4
54 | CCOCCn1c(SCC(=O)OCc2ccccc2)nc2c1c(=O)[nH]c(=O)n2C | -10.8
55 | O=S(=O)(c1ccc(Cl)nc1)N1CCCCC1 | 8.5
56 | Nc1c(C(=O)NC2CCCC2)sc2nc(-c3cccs3)ccc12 | 17.6
57 | CCN(C(=O)CCN1C(=O)c2ccccc2S1(=O)=O)c1ccccc1 | -4.86
58 | CCOc1ccc(CSC2=NCCN2)cc1[N+](=O)[O-].Cl | -71
59 | COc1ccc(C2=NS(=O)(=O)N(C)C(C(=O)N3CCOCC3)=C2)cc1 | -7.33
60 | COc1cc(/C=C2\C(=O)N(c3ccccc3)N=C2C)ccc1Oc1ccc([N+](=O)[O-])cc1[N+](=O)[O-] | 23.8
61 | NS(=O)(=O)c1ccc(N2CCCC2=O)c([N+](=O)[O-])c1 | 9.69
62 | Cc1nc(Cl)sc1C(=O)NC(C)c1ccc(Cl)cc1 (stereo not drawn) | 4.03
63 | O=C1c2cccc3cccc(c23)C(=O)N1c1cccc(O)c1 | 8.09
64 | CC(=O)c1c(C)[nH]c(C(=O)OCc2nnc(-c3ccccc3)o2)c1C | 15.8
65 | Cc1nc(C(=O)Nc2ccc(Cl)cc2Cl)nn1-c1cc(OC(C)C)c(Cl)cc1Cl | 6.96
66 | Cn1cc(Br)c(NS(=O)(=O)c2ccc(Cl)s2)n1 | 6.77

Row | Structure (SMILES) | hERG current change (%, negative = inhibition) at 1uM [%]
67 | Cc1ccc(CNC(=O)c2ccc3c(c2)S(=O)(=O)c2ccccc2C3=O)o1 | -1.73
68 | CCOc1ccccc1Nc1nnc(Cc2ccccc2Cl)c(=O)[nH]1 | -3.04
69 | Cc1occc1-c1nnc(-c2cc([N+](=O)[O-])cc([N+](=O)[O-])c2)o1 | 6.64
70 | CCCCCc1nnc(NS(C)(=O)=O)s1 | 6.56
71 | Cc1ccc(C(=O)N/C(=C/c2ccc(-c3cc(C(F)(F)F)ccc3Cl)o2)C(=O)NCc2cccnc2)cc1 | 9.93
72 | CN(C)/C=C/C(=O)c1cnc(-c2cccc(Cl)c2)s1 | 8.48
73 | CCOC(=O)c1cnc(-n2nc(C)cc2C)nc1NCc1ccc2c(c1)OCO2 | 5.48
74 | C[C@H]1CCCC(=O)CCC/C=C/c2cc(O)cc(O)c2C(=O)O1 | 20.6
75 | Cc1ccc(/C=C2\C(=O)NC(=S)N(c3ccccc3F)C2=O)s1 | 8.19
76 | COc1ccc(CCN=C(N)NS(=O)(=O)c2cc(F)ccc2OC)cc1 | 7.24
77 | CC(C)NC(=S)N1CCC(Cc2ccccc2)CC1 | 9.4
78 | COc1ccc(CN2CCCCC2C(=O)Nc2ccc(OC)c(OCC(C)C)c2)cc1OC (stereo not drawn) | 8.6
79 | CCN(CC(=O)Nc1ccc2c(c1)OCCO2)C(=O)CN1C(=O)NC(C)(c2ccc(C)cc2)C1=O (stereo not drawn) | 6.05
80 | COC(=O)Cn1c(=NC(=O)c2cc(-c3cccs3)nc3ccccc23)sc2cc(S(N)(=O)=O)ccc21 | 8.29
81 | O=C(N/N=C\c1ccc(Br)cc1)c1ccc(Cn2cccn2)o1 | 2.56
82 | CC(=O)c1ccc(S(=O)(=O)N2CCN(c3nc(-c4cccnc4)nc4ccccc34)CC2)cc1 | 1.27
83 | O=C(Cn1nnc2c(cnn2-c2ccccc2)c1=O)N1CCN(c2ccccc2F)CC1 | 14
84 | O=C(NC1(C(F)(F)F)N=C2SCCN2C1=O)c1cccnc1 (stereo not drawn) | 13.3
85 | Cc1ccc(C(=O)NCCN2CCNC2=O)cc1 | 12.1
86 | CCOc1ccc(C(=O)NC(=S)Nc2cccnc2)cc1 | 5.31
87 | Cc1ccccc1CN1CCNC(=O)C1CC(=O)NC1CCCCCCC1 (stereo not drawn) | 7.5
